The chains are these.
T1: SIN3A_PAH__Q96ST3_295_383
T1 chain: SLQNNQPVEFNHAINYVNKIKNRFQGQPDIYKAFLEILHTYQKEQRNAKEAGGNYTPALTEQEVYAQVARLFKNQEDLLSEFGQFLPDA

T2: SPOP_MATH__O43791_19_176
T2 chain: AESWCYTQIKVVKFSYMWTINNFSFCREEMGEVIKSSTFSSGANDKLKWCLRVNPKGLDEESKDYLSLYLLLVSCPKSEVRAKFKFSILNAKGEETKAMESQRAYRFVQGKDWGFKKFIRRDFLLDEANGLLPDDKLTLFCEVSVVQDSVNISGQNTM

T3: VCL_Vinc__P18206_1_258
T3 chain: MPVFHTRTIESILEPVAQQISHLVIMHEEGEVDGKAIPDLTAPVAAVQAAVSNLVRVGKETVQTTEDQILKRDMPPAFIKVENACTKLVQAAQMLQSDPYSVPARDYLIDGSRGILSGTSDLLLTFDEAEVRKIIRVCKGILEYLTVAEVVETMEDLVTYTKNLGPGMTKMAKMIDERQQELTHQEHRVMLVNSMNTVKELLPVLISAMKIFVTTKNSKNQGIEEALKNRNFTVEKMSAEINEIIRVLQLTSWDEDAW

The record followed here is the supplement of paper PMC11369174, “Proteome-scale characterisation of motif-based interactome rewiring by disease mutations” (Molecular Systems Biology, 2024).

Some of the results follow. Single values of this set are uncertain.

The first assay has as its target T1, SIN3A_PAH__Q96ST3_295_383. Nature of the assay: mutation enrichment score (mutant vs wild-type peptide binding to bait); baits are purified protein domains named by gene / domain / UniProt id / residues; peptides come from disordered regions of human proteins; higher = mutation enhances binding relative to wild type. The settings on record: number of wild-type / mutant comparisons summed (bounds the score): 5; paper call: no_effect; wild-type window: ….
MDVLVSECSARLLQQEEEIKAL [D2A D2A]: the mutation enrichment score was -4.9. Regarding ERGQLELEFSMAMGTLISELMQAMRWDQASDRPRSSARSPG [V308M V308M], the mutation enrichment score is -1. The same measure, in the same setting: as for LERIGKKLNLFDSLYFCIVTLSTVGFGDVTPETWSSKLFVV [F240L F240L], the figure is 2. Regarding WKNVKVNFDNVGFGYLSLLQAATFKGWMDIMYAAVDSRNVE [V1428A V1428A], the mutation enrichment score stood at 3. Turning to MDVLVSECSARLLQQEEEIKVL [D2V D2V], the mutation enrichment score is -5. In the case of GGPRGSSETVGAALLLNLLARLGAMGARRP [G175R G175R], the mutation enrichment score is -2.

On to SRVAPHGRGPGLLPLLAALASFSRPAAAEEEEQQGADGAAA [W65S W65S], for which the mutation enrichment score is -2.

On to MGLLECCARCLVGAPFASLVLTGLCFFGVALFCGC [P15L P15L], for which the mutation enrichment score is -4. MDVLVSECSARLLQQEEEIKGL [D2G D2G]: the mutation enrichment score is -5. With GGPRGSSETVGAALLLNLLASLGAMGARRP [G175S G175S], the mutation enrichment score is -2.

In the next assay the target is T2, SPOP_MATH__O43791_19_176. The assay is described as above. The settings on record: number of wild-type / mutant comparisons summed (bounds the score): 6; paper call: no_effect; wild-type window: ….
Consider SLYQSSCQGQLHRSVSWADSTVVMEEGSPGEVPVLVEPPGL [A1297T A1297T], for which the mutation enrichment score is 5. In the case of VDETGNNPSVSLKLEESKATTSSNPSSPAPDWYKDFVTDAD [S1990T S1990T], the mutation enrichment score is -2. As to GCYIHIYLTVRNPNIVSSSSNTRIAKRMAMLIFTDFLCMAP [D567N D567N], the mutation enrichment score is -2.8. Still for that read-out and setting: as for DLPMGTEGALSPGVSTSGISISQGEQSNPAQSPFSPHTSPH [S668I S668I], the figure is -1.7; as for ATTLHVPSQDPAGIQHLQPARRLSASPTVSSSSLVLYQSSD [H582R H582R], -3; as for GIQHLQPAHRLSASPTVSSSILVLYQSSDSSNGQSHLLPSN [S594I S594I], -4.

AGTYKCIATNKTGQNSFSLEISVVAKEVKKAPVILEKLQNC [L1161I L1161I]: the mutation enrichment score is -2. The same measure, in the same setting: as for AGLAQSLASQSASISGVKQLSPIQLPQSSSGNTIIPSNSGS [P317S P317S], the figure is 4; as for GYISVVDTLKVVTEEVTTTTITITEKHKLNVPETMTEVLDV [T825I T825I], -3.9. Take LSPQGYASPVSQSPQTSSKQNSWNSLVLADSHGDIITA [D425N D425N]: the mutation enrichment score amounted to 1. On the same count and under the same terms, as for TTLHVPSQDPAGIQHLQPAHGLSASPTVSSSSLVLYQSSDS [R583G R583G], the figure is -0.19.

The target of another assay is SMURF2_WW_3_Q9HAU4_298_330. The assay is described as above. As to conditions: number of wild-type / mutant comparisons summed (bounds the score): 12; paper call: enhanced; wild-type window: ….
Turning to KFGITDLPRIDVSKREPPPVEQELPPYNGFGLVEDSAQNCF [K378E K378E], the mutation enrichment score came to 6.7.

The target of the next assay is WWTR1_WW__Q9GZV5_122_160. Described as above. As to conditions: number of wild-type / mutant comparisons summed (bounds the score): 12; paper call: no_effect; wild-type window: ….
WWTR1_WW__Q9GZV5_122_160, sequence (chain, as listed by the source): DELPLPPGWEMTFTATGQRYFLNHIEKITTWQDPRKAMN
Regarding KFGITDLPRIDVSKREPPPVEQELPPYNGFGLVEDSAQNCF [K378E K378E], the mutation enrichment score is 3.5.

For the next assay, the target named is T1, SIN3A_PAH__Q96ST3_295_383. The description is as above. As to conditions: number of wild-type / mutant comparisons summed (bounds the score): 10; paper call: no_effect; wild-type window: ….
For ERGQLELEFSMAMGTLISELLQAMRWDQASDRPRSSARSPG [V308L V308L], the mutation enrichment score came out at 0.

The next assay has as its target USP7_MATH-TRAF__Q93009_53_206. The description is as above. The settings on record: number of wild-type / mutant comparisons summed (bounds the score): 10; paper call: no_effect; wild-type window: ….
Regarding DLPMGTEGALSPGVSTSGISISQGEQSNPAQSPFSPHTSPH [S668I S668I], the mutation enrichment score stood at 1.

The next assay has as its target SMURF2_WW_3_Q9HAU4_298_330. The assay is described as above. The settings on record: number of wild-type / mutant comparisons summed (bounds the score): 6; paper call: enhanced; wild-type window: ….
Regarding IRYAHGLISDYIPKELSDDLPKYLKLPEPSASLPNPPSKKI [S229P S229P], the mutation enrichment score was determined as 6.

A further assay has as its target SNX9_SH3_1_Q9Y5X1_3_61. Described as above. As to conditions: number of wild-type / mutant comparisons summed (bounds the score): 6; paper call: no_effect; wild-type window: ….
On to QAESQINKQTKVGDIARKTDGPALHLRIPPQPGALGSPPPA [R2099G R2099G], for which the mutation enrichment score was -1.3. In the case of LYKDPCAFQRGPAPEFSASPTACLYMGRQPPPPPPHPFPGA [P33T P33T], the mutation enrichment score was -3.9. As to QPILDSFPKDVDLSQPRKGRNPPAVPKALVPPPRLPTKRKA [K114N K114N], the mutation enrichment score stood at 4.5. With AYGAPLTSPEPSQPPCAVCIWHRDAPRASSPPRYLQHDPFP [G1019W G1019W], the mutation enrichment score worked out at 3.

For the next assay, the target named is SMURF2_WW_3_Q9HAU4_298_330. The assay is described as above. As to conditions: number of wild-type / mutant comparisons summed (bounds the score): 12; paper call: diminished; wild-type window: ….
Take PSHLTHSSTFCMRTFGYNTIHVVPTYEHYANSTQPGEPRKV [D62H D62H]: the mutation enrichment score was -8.

Turning to PSHLTHSSTFCMRTFGYNTINVVPTYEHYANSTQPGEPRKV [D62N D62N], the mutation enrichment score is -8. As for SHPSHLTHSSTFCMRTFGYNMIDVVPTYEHYANSTQPGEPR [T60M T60M], the mutation enrichment score was -5.5. On to STFCMRTFGYNTIDVVPTYENYANSTQPGEPRKVRPTLADL [H69N H69N], for which the mutation enrichment score is -8. Turning to SSTFCMRTFGYNTIDVVPTYKHYANSTQPGEPRKVRPTLAD [E68K E68K], the mutation enrichment score is -8.

For another assay, the target named is SNX9_SH3_1_Q9Y5X1_3_61. The assay is described as above. The settings on record: number of wild-type / mutant comparisons summed (bounds the score): 6; paper call: diminished; wild-type window: ….
SNX9_SH3_1_Q9Y5X1_3_61, sequence (chain, as listed by the source): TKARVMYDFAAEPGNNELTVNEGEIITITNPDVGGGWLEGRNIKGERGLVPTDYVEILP
For the molecule LYKDPCAFQRGPAPEFSASPAACLYMGRQPPPPPPHPFPGA [P33A P33A], the mutation enrichment score is -6. LYKDPCAFQRGPAPEFSASPSACLYMGRQPPPPPPHPFPGA [P33S P33S]: the mutation enrichment score was -6.

The next assay deals with SNX27_PDZ__Q96L92_40_141. The description is as above. As to conditions: number of wild-type / mutant comparisons summed (bounds the score): 12; paper call: no_effect; wild-type window: ….
Turning to WSGTEAPTQVTVETHPVQETNFHVAPQQNALHHHHGNSSHH [T588N T588N], the mutation enrichment score was -2.

Still in this assay, the particulars now being: number of wild-type / mutant comparisons summed (bounds the score): 6; paper call: no_effect; wild-type window: ….
As for FPNEGIAIDMELQSDPEEQLLENACISETSFSSESPEGACT [S603L S603L], the mutation enrichment score is 0.07. The same measure, in the same setting: then SPERAPVQNSPWKETSLDHPFEKPRKSSEPWSESSSPATTP [Y333F Y333F], with -3; and EPLLPLQCGETDLDLTVQETSLQGPVGGDQRPEVEDPEELS [G1031S G1031S], with 4.

The next assay addresses SMURF2_WW_3_Q9HAU4_298_330. The assay is described as above. As to conditions: number of wild-type / mutant comparisons summed (bounds the score): 6; paper call: no_effect; wild-type window: ….
In the case of RRYYKEKFGITDLPRIDVSKWEPPPVKQELPPYNGFGLVED [R372W R372W], the mutation enrichment score came out at 1.

In the case of LYAAGERGGHLQGAPGGAGGLAVDDPLPDYSLPPVTSSSSS [S422L S422L], the mutation enrichment score was determined as 5.9. For AKKPAQTASKLPPPVARKPSELPVYKLLPSQNRLQPQKHVS [Q1611E Q1611E], the mutation enrichment score was determined as 3.

A further assay addresses WWTR1_WW__Q9GZV5_122_160. Described as above. As to conditions: number of wild-type / mutant comparisons summed (bounds the score): 6; paper call: no_effect; wild-type window: ….
RRYYKEKFGITDLPRIDVSKWEPPPVKQELPPYNGFGLVED [R372W R372W]: the mutation enrichment score was 2.

Another assay concerns the target SNX9_SH3_1_Q9Y5X1_3_61. Described as above. The settings on record: number of wild-type / mutant comparisons summed (bounds the score): 12; paper call: no_effect; wild-type window: ….
With LGSQRDLTHSDSESSLHMSDCQRVAPKPPQMSRAADEALNA [R530C R530C], the mutation enrichment score is -0.14.

Consider LGSQRDLTHSDSESSLHMSDGQRVAPKPPQMSRAADEALNA [R530G R530G], for which the mutation enrichment score turned out to be 3.

In another assay the target is T3, VCL_Vinc__P18206_1_258. The assay is described as above. The settings on record: number of wild-type / mutant comparisons summed (bounds the score): 12; paper call: no_effect; wild-type window: ….
On to MGLLECCARCLVGAPFASLVLTGLCFFGVALFCGC [P15L P15L], for which the mutation enrichment score is 4.

The next assay has as its target T2, SPOP_MATH__O43791_19_176. Described as above. The settings on record: number of wild-type / mutant comparisons summed (bounds the score): 12; paper call: no_effect; wild-type window: ….
KDANSDFSSYADSLWWGTITSTTIGYGDKTPHTWLGRVLAA [L281S L281S]: the mutation enrichment score was found to be 4.

As for TTLHVPSQDPAGIQHLQPAHQLSASPTVSSSSLVLYQSSDS [R583Q R583Q], the mutation enrichment score is -3.

A further assay deals with USP7_MATH-TRAF__Q93009_53_206. Described as above. The settings on record: number of wild-type / mutant comparisons summed (bounds the score): 5; paper call: no_effect; wild-type window: ….
USP7_MATH-TRAF__Q93009_53_206, sequence (chain, as listed by the source): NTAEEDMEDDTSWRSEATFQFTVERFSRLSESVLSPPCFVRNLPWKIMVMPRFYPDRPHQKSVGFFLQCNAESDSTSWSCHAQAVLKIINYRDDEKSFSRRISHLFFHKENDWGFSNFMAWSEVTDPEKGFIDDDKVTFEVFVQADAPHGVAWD
With TTLHVPSQDPAGIQHLQPAHGLSASPTVSSSSLVLYQSSDS [R583G R583G], the mutation enrichment score is 1.
